{
  "source": "the supplement of paper PMC4723716",
  "note": "± gives the uncertainty stated by the source. Over roughly 9,900 compounds, “viability index relative to DMSO control” has its median near 1; the lowest 2% begin near 0.85. Some of the results follow.",
  "data": [
    {"test_system": "Plasmodium falciparum NF54 stage V gametocytes", "assay": "viability index relative to DMSO control (fraction); higher = less gametocyte killing", "conditions": "2.5 µM, library set: Broad Institute DOS, incubation time: 72 h", "summary_of_the_method": "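In 1,536-well plates, 10 µl of serum-free medium holding P. falciparum NF54 stage V gametocytes (0.75% gametocytemia, 1.25% hematocrit) received compound at 2.5 µM for 72 hr at 37°C in low oxygen. After one to two hours with 3 µl of 2.5 µM MitoTracker Red CMXRos containing 0.13% saponin, red particles of 20–70 µm2 were counted in a single field per well. Viability index is reported as the particle count over the plate mean of wells treated with solvent only.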", "values": [
      {"smiles": "C[C@@H]1CN([C@@H](C)CO)S(=O)(=O)c2ccc(C#Cc3cccc(F)c3)cc2O[C@H]1CN(C)S(=O)(=O)c1cn(C)cn1", "viability index": "0.9366 ± 0.0027"},
      {"smiles": "CCS(=O)(=O)N1CC2(C1)[C@H](c1ccccc1)[C@H](CO)N2C(=O)c1ccccc1", "viability index": "1.07 ± 0.07"},
      {"smiles": "COc1ccccc1-c1ccc([C@@H]2[C@H](CO)N(CC3CC3)C23CN(S(C)(=O)=O)C3)cc1", "viability index": "1.03 ± 0.094"},
      {"smiles": "COCC(=O)N1CC[C@@H]2[C@H](CO)Nc3ccc(C#Cc4ccc(F)cc4)cc3[C@@H]21", "viability index": "1.09 ± 0.049"},
      {"smiles": "O=C(N[C@@H]1CC[C@H](CCNS(=O)(=O)c2ccc(F)cc2)O[C@@H]1CO)C1CCC1", "viability index": "1.13 ± 0.12"},
      {"smiles": "CCS(=O)(=O)N1Cc2cc(C(=O)N(C)C)nc(-c3cccc(-c4ccc(C#N)cc4)c3)c2[C@@H]1CCO", "viability index": "1.01 ± 0.035"},
      {"smiles": "COc1ccc2c3c([nH]c2c1)[C@@H](CO)N(C[C@]31CCN(Cc2cc(on2)-c2ccccc2)CC1)C(C)=O", "viability index": "0.936 ± 0.02"},
      {"smiles": "COc1ccc(S(=O)(=O)N(C)C[C@H]2Oc3ccc(N(C)C)cc3CC(=O)N([C@@H](C)CO)C[C@@H]2C)cc1", "viability index": "1.01 ± 0.074"},
      {"smiles": "O=C(Nc1ccccc1F)N[C@@H]1CC[C@H](CCNC(=O)C2CC2)O[C@@H]1CO", "viability index": "1.068 ± 0.0055"},
      {"smiles": "COc1cccc(C#Cc2ccc3c(c2)[C@H]2[C@H](CCN2C(=O)c2ccccc2F)[C@H](CO)N3)c1", "viability index": "1.09 ± 0.023"},
      {"smiles": "CCS(=O)(=O)Nc1ccc2c(c1)C(=O)N(C)[C@H]1CC[C@@H](CC(=O)N3CCN(C)CC3)O[C@@H]1CO2", "viability index": "1.08 ± 0.13"},
      {"smiles": "CCC(=O)N1[C@H](CO)[C@H]2c3ccccc3N(S(=O)(=O)c3ccc(F)cc3)C[C@H]21", "viability index": "0.958 ± 0.067"},
      {"smiles": "CN1C[C@H](O)COC[C@@H]2O[C@H](CC(=O)NC3CCCC3)CC[C@H]21", "viability index": "1.09 ± 0.066"},
      {"smiles": "C[C@H]1CCCCO[C@H](CN(C)C(=O)NC2CCCCC2)[C@@H](C)CN([C@@H](C)CO)C(=O)c2cc(N(C)C)ccc2O1", "viability index": "1.17 ± 0.098"},
      {"smiles": "C[C@@H]1CN([C@H](C)CO)C(=O)c2ccccc2-c2ccccc2CO[C@@H]1CN(C)S(=O)(=O)c1ccc([N+](=O)[O-])cc1", "viability index": "0.969 ± 0.06"},
      {"smiles": "CO[C@H]1CN(C)C(=O)c2cc(NC(=O)c3ccc(Oc4ccccc4)cc3)ccc2OC[C@@H](C)NC[C@H]1C", "viability index": "1.05 ± 0.043"},
      {"smiles": "COc1ccc(CN2C[C@]3(CN(C3)S(=O)(=O)c3ccc(C)cc3)c3c([nH]c4cc(OC)ccc34)[C@H]2CO)cc1", "viability index": "0.793 ± 0.014"},
      {"smiles": "CS(=O)(=O)Nc1ccc2c(c1)[C@H]1C[C@@H](CC(=O)NCc3cc(F)ccc3F)O[C@H](CO)[C@H]1O2", "viability index": "1.04 ± 0.013"},
      {"smiles": "C/C=C/c1ccc([C@@H]2[C@H]3CNC[C@@H]2N3C(=O)Nc2ccccc2Cl)cc1", "viability index": "1.04 ± 0.051"},
      {"smiles": "COc1ccc(S(=O)(=O)N(C)C[C@@H]2Oc3c(NC(=O)c4nc5ccccc5s4)cccc3C(=O)N([C@H](C)CO)C[C@H]2C)cc1", "viability index": "1.02 ± 0.054"}
    ]}
  ]
}
